The whole screen tested about 360,000 compounds, of which about 16,000 (4.4%) were called active. The shares of active, inactive and inconclusive entries below differ from those in the screen. The call rests on the fitted dose curve; in most records, active means well fitted inhibition curve with a large enough effect; inconclusive means small, poorly fitted or top-dose-only effect; inactive means no such curve, though single readings can be large or run the other way. Where the call is inconclusive, the potency comes from a doubtful curve fit.
biological target: Bromodomain adjacent to zinc finger domain protein 2B (Homo sapiens) (UniProt Q9UIF8); assay: qHTS Assay for Inhibitors of BAZ2B; conditions: AlphaScreen BAZ2B-H3K14Ac peptide displacement; activity change, negative = inhibition: at 114 µM (top of the series) unless noted; further: nearly all actives have a fitted effect of over 60% in size
Sequence of UniProt Q9UIF8 (Q9UIF8 whole entry, looked up, the tested form may be a part): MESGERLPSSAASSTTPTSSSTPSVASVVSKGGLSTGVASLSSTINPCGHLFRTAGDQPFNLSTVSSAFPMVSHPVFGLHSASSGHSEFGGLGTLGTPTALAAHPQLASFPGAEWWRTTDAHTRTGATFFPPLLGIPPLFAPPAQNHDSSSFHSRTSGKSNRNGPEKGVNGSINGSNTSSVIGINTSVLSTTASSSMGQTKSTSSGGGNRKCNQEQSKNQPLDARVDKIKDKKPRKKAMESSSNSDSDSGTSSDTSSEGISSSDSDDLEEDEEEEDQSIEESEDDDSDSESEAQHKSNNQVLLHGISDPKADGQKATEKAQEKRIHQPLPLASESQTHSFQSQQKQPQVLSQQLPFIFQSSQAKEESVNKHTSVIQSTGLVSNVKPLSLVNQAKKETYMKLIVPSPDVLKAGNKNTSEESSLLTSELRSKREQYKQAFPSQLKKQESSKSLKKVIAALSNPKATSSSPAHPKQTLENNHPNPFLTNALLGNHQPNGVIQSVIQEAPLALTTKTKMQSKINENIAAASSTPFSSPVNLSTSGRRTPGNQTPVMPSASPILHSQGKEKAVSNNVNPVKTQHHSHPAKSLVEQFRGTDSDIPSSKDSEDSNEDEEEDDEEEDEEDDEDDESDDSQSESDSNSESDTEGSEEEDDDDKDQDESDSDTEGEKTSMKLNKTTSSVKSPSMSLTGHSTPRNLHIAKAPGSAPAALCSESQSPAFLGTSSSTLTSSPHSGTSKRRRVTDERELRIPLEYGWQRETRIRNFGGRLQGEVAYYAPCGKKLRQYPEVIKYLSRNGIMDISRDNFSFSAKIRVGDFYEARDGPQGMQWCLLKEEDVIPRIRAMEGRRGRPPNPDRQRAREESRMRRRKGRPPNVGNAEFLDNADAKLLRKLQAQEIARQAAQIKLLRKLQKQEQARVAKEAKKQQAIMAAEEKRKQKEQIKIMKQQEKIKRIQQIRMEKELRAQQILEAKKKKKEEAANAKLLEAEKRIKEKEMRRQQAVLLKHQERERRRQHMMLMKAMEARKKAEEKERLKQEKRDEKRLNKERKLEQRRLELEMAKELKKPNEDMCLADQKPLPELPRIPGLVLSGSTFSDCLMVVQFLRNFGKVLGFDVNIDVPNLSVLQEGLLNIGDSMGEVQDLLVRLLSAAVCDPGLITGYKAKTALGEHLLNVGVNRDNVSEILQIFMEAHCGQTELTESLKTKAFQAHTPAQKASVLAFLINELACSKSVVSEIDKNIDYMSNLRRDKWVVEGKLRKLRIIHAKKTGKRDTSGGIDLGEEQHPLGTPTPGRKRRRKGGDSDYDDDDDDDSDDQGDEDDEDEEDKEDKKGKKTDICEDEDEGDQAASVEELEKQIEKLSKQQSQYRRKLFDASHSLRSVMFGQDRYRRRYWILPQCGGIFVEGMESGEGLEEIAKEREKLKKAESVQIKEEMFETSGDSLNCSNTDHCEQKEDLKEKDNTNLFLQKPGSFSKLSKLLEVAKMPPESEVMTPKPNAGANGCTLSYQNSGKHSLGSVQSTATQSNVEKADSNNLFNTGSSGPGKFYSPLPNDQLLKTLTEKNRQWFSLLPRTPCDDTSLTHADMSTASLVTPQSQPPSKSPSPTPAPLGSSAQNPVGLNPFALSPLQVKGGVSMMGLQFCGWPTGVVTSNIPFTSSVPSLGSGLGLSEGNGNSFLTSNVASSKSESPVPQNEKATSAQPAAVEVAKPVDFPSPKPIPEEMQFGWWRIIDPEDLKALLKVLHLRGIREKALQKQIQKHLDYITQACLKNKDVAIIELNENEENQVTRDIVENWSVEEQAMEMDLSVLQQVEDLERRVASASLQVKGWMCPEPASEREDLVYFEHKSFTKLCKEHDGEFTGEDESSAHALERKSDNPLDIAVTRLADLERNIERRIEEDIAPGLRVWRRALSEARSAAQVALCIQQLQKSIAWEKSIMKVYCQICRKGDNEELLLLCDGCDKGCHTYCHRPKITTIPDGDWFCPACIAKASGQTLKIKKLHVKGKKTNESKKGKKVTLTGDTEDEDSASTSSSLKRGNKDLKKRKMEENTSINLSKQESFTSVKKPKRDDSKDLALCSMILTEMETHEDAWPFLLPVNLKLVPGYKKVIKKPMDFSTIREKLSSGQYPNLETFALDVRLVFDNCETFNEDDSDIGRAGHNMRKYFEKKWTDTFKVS
Outline: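 BAZ2B 50 nM plus b-H3(5-23)K14Ac 50 nM, PBS pH 7.4/0.01% Tween-20, 30 min RT; compound added (max 110 uM), 30 min RT; streptavidin donor/Ni-chelate acceptor beads 10 ug/mL final, 20 min dark; AlphaScreen read.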
On the % scale 0 is the no-effect control and ±100 the full control effect; potency means the concentration at half of the fitted maximal effect; tags describe the fitted curve by direction and shape.

SMILES | activity change, negative = inhibition | Potency
C[C@H]1CNC(=O)C(=O)N1C[C@H](Cc1ccc(O)cc1)NC(=O)CC12CC3CC(CC(C3)C1)C2 | inactive: -2.4% | 
Cc1nc([N+](=O)[O-])c(C(=O)OCc2ccccc2F)n1C | inactive: 0.322% | 
COc1cc(OC)c(NC(=O)Cn2nc(C)n3cccc3c2=O)cc1Cl | inactive: -11.4% | 
CCC(=O)N1CCc2cc(S(=O)(=O)N3CCN(c4ccccc4F)CC3)ccc21 | inactive: -0.183% | 
COc1ccc(C)cc1NC(=O)CN1C(=O)CSc2ccc(S(=O)(=O)N3CCCC3)cc21 |  | inconclusive: 63.1 µM [inhibitor, partial curve, poor fit]
COc1ccc(F)cc1C1=CC(=O)C[C@H](c2ccc3c(c2)OCO3)C1 | inactive: -0.671% | 
CCOc1ccc(NC(=O)Nc2cccc(C)n2)cc1 |  | inactive
Cc1cc(/C=N/n2cnnc2)c(C)n1-c1cccc(C(=O)O)c1 |  | active: 35.5 µM
COc1cccc(-c2nnc(NC(=O)c3ccccc3Br)o2)c1 |  | inconclusive: 89.1 µM [inhibitor, single point]
C[C@H]1[C@H](C)CC[C@]2(C)CC[C@]3(C)C(=CC[C@@H]4[C@@]5(C)CC[C@@H](O)[C@](C)(C(=O)O)[C@@H]5CC[C@]43C)[C@H]12 |  | inconclusive: 89.1 µM [inhibitor, single point]
COc1ccc(C2Nc3ccccc3-n3c(-c4ccccc4)c4c(=O)n(C)c(=O)n(C)c4c32)cc1 (stereo unspecified) |  | inconclusive: 89.1 µM [inhibitor, single point]
S=C1SCN(CC2CC2)CN1CC1CC1 |  | inconclusive: 79.4 µM [inhibitor, single point]
COc1ccccc1-c1noc(-c2ccc(NCc3ccccc3)c([N+](=O)[O-])c2)n1 | inactive: -4.93% | 
C=CC[n+]1c(/C=C2\C=Cc3cc(C)ccc3N2CC)ccc2ccccc21 |  | active: 35.5 µM
O=C(Cn1ncc2c([nH]c3ccccc32)c1=O)N1CCc2ccccc2C1 | inactive: -10.4% | 
CC1(C)CC(=O)C2=C(C1)c1c(ccc3ccccc13)NC2c1ccco1 (stereo unspecified) |  | inconclusive: 56.2 µM [inhibitor, partial curve]
COC(=O)c1ccnc(/C=N/O)c1 |  | active: 50.1 µM
Cn1nnnc1SCC1=C(C(=O)O)N2C(=O)C(NC(=O)Cn3nc(C(F)F)cc3C3CC3)C2SC1 (stereo unspecified) |  | active: 70.8 µM
CS(=O)(=O)N1CCN(c2ccc(NC(=O)C(c3ccccc3)c3ccccc3)cc2)CC1 | inactive: 0.111% | 
COc1ccc(C(C)=O)cc1CSCC(=O)O | inactive: -12.7% | 
CCN(CC)Cc1ccc(NC(=O)c2sc3cc(Cl)ccc3c2Cl)cc1 |  | inconclusive: 70.8 µM [inhibitor, single point]
COc1ccc(OC)c(NC(=O)CN2CCC(C(=O)c3ccc(C)cc3)CC2)c1 |  | inconclusive: 89.1 µM [inhibitor, single point]
CCc1nc(C#N)c(N2CCCCC2)o1 | inactive: -37.2% | 

SMILES | activity change, negative = inhibition | Potency
O=C(CSc1ccc(Cl)cc1)Nc1cc(-c2nc3ncccc3o2)ccc1Cl | inactive: -12.3% | 
O=C1NC(=S)S/C1=C\c1coc2ccc(O)cc2c1=O |  | inconclusive: 70.8 µM [inhibitor, partial curve]
CCCCNC(=O)C1CCCN1S(=O)(=O)c1cccc2nsnc12 (stereo unspecified) |  | inconclusive: 100 µM [inhibitor, partial curve]
COC(=O)c1sccc1-c1ccc(C(N)=O)o1 |  | inconclusive: 50.1 µM [inhibitor, partial curve]
O=c1[nH]c2cc3c(cc2cc1CN(Cc1cccnc1)Cc1nnnn1Cc1ccco1)OCCO3 |  | inconclusive: 50.1 µM [inhibitor, partial curve]
COC(=O)CN1C(=O)CSc2ccc(S(=O)(=O)Nc3ccccc3)cc21 | inactive: -9.02% | 
Cc1ccc(C(C)C)cc1OCCn1cncn1 |  | active: 79.4 µM
COC(=O)C1CCN(Cc2ccc(OCCCN3CCN(c4ccc([N+](=O)[O-])cc4)CC3)cc2)CC1 |  | inconclusive: 22.4 µM [inhibitor, full curve]
O=C(Nc1cccc2ncccc12)c1ccc(-c2ccc(Cl)cc2Cl)o1 |  | inconclusive: 79.4 µM [inhibitor, single point]
O=C1c2ccccc2-c2c1cccc2C(=O)N(CCO)CCO | inactive: 2.6% | 
CSc1cccc(Nc2ccc(S(=O)(=O)N3CCOCC3)cc2[N+](=O)[O-])c1 |  | inconclusive: 22.4 µM [inhibitor, full curve]
Cc1ccc(OCCn2cnc3cc([N+](=O)[O-])ccc3c2=O)cc1 |  | inconclusive: 56.2 µM [inhibitor, partial curve]
C/C(=N/NC(=O)c1ccccn1)c1ccc(O)cc1 |  | active: 50.1 µM
Cc1sc(NC(=O)c2ccccc2)c(C(=O)c2ccccc2)c1C |  | inconclusive: 70.8 µM [inhibitor, single point]
O=C(Nc1ccc(NC(=O)C2CC2)nc1)c1ccccn1 |  | inconclusive: 89.1 µM [inhibitor, single point]
CCOc1ccccc1CNC(=O)C1CCN(C(=O)N2CCOc3ccc(Cl)cc32)CC1 |  | inconclusive: 79.4 µM [inhibitor, single point]
C=CCOc1cccc(C2C(C(=O)c3ccco3)=C(O)C(=O)N2CCN2CCOCC2)c1 (stereo unspecified) |  | inconclusive: 89.1 µM [inhibitor, single point]
O=C1SC(SCc2ccccc2)=N/C1=C\c1ccc(C(=O)O)cc1 |  | inconclusive: 89.1 µM [inhibitor, single point]
CC(NC(=O)c1cc2sccc2n1C)c1ccc2c(c1)OCCO2 (stereo unspecified) |  | inconclusive: 50.1 µM [inhibitor, partial curve]
c1ccc(-n2nnnc2Sc2n[nH]c(-c3ccncc3)n2)cc1 |  | inconclusive: 89.1 µM [inhibitor, single point]
Cn1c(=O)c([N+](=O)[O-])c(N2CCN(Cc3ccc4c(c3)OCO4)CC2)c2ccccc21 |  | inconclusive: 14.1 µM [inhibitor, full curve, poor fit]
COc1ccccc1N1CCN(/N=C/C=C/c2ccccc2[N+](=O)[O-])CC1 |  | active: 11.2 µM
COc1ccc(CNc2nc3c(c(=O)n(Cc4ccc(F)cc4)c(=O)n3C)n2C)cc1 |  | inconclusive: 44.7 µM [inhibitor, partial curve]
